In PubChem BioAssay AID1745847 (National Center for Advancing Translational Sciences (NCATS), 2022):
About 670 (32%) of roughly 2,100 compounds were called active. This list was built around the results that the source calls inconclusive (neither active nor inactive); the mix of calls is not that of the screen. The call rests on the fitted dose curve; in most records, active means well fitted inhibition curve with a large enough effect; inconclusive means small, poorly fitted or top-dose-only effect; inactive means no such curve, though single readings can be large or run the other way. A potency beside an inconclusive call is a rough fit, not a confirmed value.

assay: CMV-Luciferase Counterscreen for Inhibitors of ATXN expression; settings: HEK-293 CMV-luciferase reporter, luminescence, 24 h; series mostly up to 57.5 µM; further: nearly all actives have a fitted effect of over 55% in size
On the % scale 0 is the no-effect control and ±100 the full control effect; potency means the concentration at half of the fitted maximal effect; tags describe the fitted curve by direction and shape.

SMILES	Potency	activity change, negative = inhibition
CC(=O)C(C(C)=O)c1c(Cl)c(O)c(O)c2c(C(=O)c3ccccc3)coc12	inconclusive: 2.24 µM [inhibitor, full curve, poor fit]	–
C/C(=N\NC(=O)C1CCCN(S(=O)(=O)c2ccccc2)C1)c1ccccn1 (stereo not drawn)	active: 1.41 µM	–
CCCCCCc1cc2cc(S(=O)(=O)c3ccc(Cl)cc3)c(=O)oc2cc1O	inconclusive: 7.08 µM [inhibitor, single point]	–
CCCCC(=O)NC(c1ccc(Cl)cc1)c1ccc2cccnc2c1O (stereo not drawn)	inconclusive: 2 µM [inhibitor, full curve, poor fit]	–
O=C1C=CCC(/C=C/c2ccccc2)O1 (stereo not drawn)	inconclusive: 3.16 µM [inhibitor, partial curve, poor fit]	–
CC(=O)N1CCN(c2ccc(Oc3ccc([N+](=O)[O-])c(C(F)(F)F)c3)cc2)CC1	active: 7.94 µM	–
COc1ccc(NS(=O)(=O)c2ccc(C(=O)Nc3c(C)n(C)n(-c4ccccc4)c3=O)cc2)cc1	–	inactive: 0.165% [at 11.4 µM]
COc1ccc(C(=O)NNC(=S)NC(=O)C(C)(C)C)cc1	inconclusive: 10 µM [inhibitor, partial curve]	–
O=C(Oc1c(CN2CCOCC2)cc(Cl)c2cccnc12)c1ccccc1F	inconclusive: 3.55 µM [inhibitor, full curve, poor fit]	–
O=C(N/N=C/c1cc([N+](=O)[O-])ccc1O)c1cc(-c2ccccc2)nc2ccccc12	active: 1.78 µM	–
O=C(CC1Sc2ccccc2NC1=O)NNc1cccc(Cl)c1Cl (stereo not drawn)	inconclusive: 3.16 µM [inhibitor, single point]	–
CC(=O)c1sc(C(C)(C)C)cc1NC(=O)/C=C/C(=O)O	inconclusive: 17.8 µM [inhibitor, single point]	–
COc1ccc(C(NCC(=O)NC(C)c2ccc(Cl)cc2)c2ccccc2)cc1 (stereo not drawn)	inconclusive: 35.5 µM [inhibitor, single point]	–
CCOC(=O)c1c(NC(=O)/C=C/C(=O)O)sc(C)c1-c1ccc(Cl)cc1	inconclusive: 20 µM [inhibitor, partial curve, poor fit]	–
COc1ccc(CCNC2=C(Cl)C(=O)N(Cc3ccccc3)C2=O)cc1OC	inconclusive: 2 µM [inhibitor, partial curve, poor fit]	–
C=C(C)Cn1c(SCC(=O)N/N=C/c2c(O)ccc3ccccc23)nc2ccccc2c1=O	active: 22.4 µM	–
Cc1cc(C)c(C(=O)N2CCCC(N3CCN(c4cccc(C(F)(F)F)c4)CC3)C2)o1 (stereo not drawn)	active: 3.55 µM	–
C=CCN(C(=O)CSc1nc2c(sc3ccccc32)c(=O)n1CCN(CC)CC)c1ccccc1	inconclusive: 20 µM [inhibitor, single point]	–
CCOc1cccc(/C=N/NC(=O)C2CCCC2)c1O	inconclusive: 39.8 µM [inhibitor, single point]	–
NNc1ccc(Cc2ccc(Cl)cc2Cl)nn1	inconclusive: 25.1 µM [inhibitor, single point]	–
O=c1cc(-c2c(F)c(F)c(F)c(F)c2F)oc2ccccc12	inconclusive: 4.47 µM [inhibitor, single point]	–
Cc1[nH]n(-c2ccccc2)c(=O)c1/C=N/NC(=O)c1ccccc1F	inconclusive: 7.08 µM [inhibitor, partial curve]	–

SMILES	Potency	activity change, negative = inhibition
CC[n+]1c(C=C2C=C(C)OC(C)=C2)sc2ccccc21	inconclusive: 2.51 µM [inhibitor, full curve, poor fit]	–
O=C(CNC(=O)c1ccc2c(c1)OCO2)N/N=C/c1cc(Br)ccc1O	inconclusive: 1 µM [inhibitor, partial curve, poor fit]	–
O=C(c1ccc(Cl)s1)N1CCN(c2nc3ccccc3s2)CC1	inconclusive: 2.82 µM [inhibitor, partial curve, poor fit]	–
COc1ccc(-c2noc(CCCC(=O)NC3CCCC3)n2)cc1	active: 7.94 µM	–
COc1ccc(O)c(/C=N/NC(=O)c2ccc(N3CCCC3=O)cc2)c1	inconclusive: 7.94 µM [inhibitor, full curve, poor fit]	–
CCOc1ccc(CN(C)c2nc(-c3cccnc3)nc3ccccc23)cc1OC	inconclusive: 25.1 µM [inhibitor, single point]	–
CC1(C)Cc2c(c(-c3ccco3)nc3sc4c(NCCN5CCOCC5)ncnc4c23)CO1	inactive	–
CCOC(=O)C(C(C)=O)c1c(Br)c(O)c(O)c2c(C(=O)c3ccc(C)cc3)coc12 (stereo not drawn)	active: 2.51 µM	–
Clc1cccc(-c2nc(NCc3cccnc3)c3ccccc3n2)c1	inconclusive: 25.1 µM [inhibitor, single point]	–
O=C1c2cccc3c([N+](=O)[O-])ccc(c23)C(=O)N1c1ccc(Cl)cn1	active: 20 µM	–
O=[N+]([O-])c1ccc(NC(c2ccccc2)c2ccc3cccnc3c2O)cc1 (stereo not drawn)	active: 2.51 µM	–
COc1ccc(CC(N)c2csc(NC(=O)c3cc(C(C)(C)C)nn3Cc3ccccc3)n2)cc1 (stereo not drawn)	–	inactive: -13.8% [at 11.4 µM]
ClC(Cl)(Cl)c1nc2ccccc2n2nncc12	–	inactive: -25.9% [at 11.4 µM]
COc1ccc(-c2cnc3c(NC=O)cc(-c4ccccc4OC)cn23)cc1OC	inactive	–
O=[N+]([O-])c1cc(O)c2ncccc2c1	active: 3.16 µM	–
C(=N\Nc1ccc2nncn2n1)/c1ccccn1	active: 17.8 µM	–
CCOC(=O)c1c(C)nn(-c2ccc(NC(=O)/C=C/C(=O)O)cc2)c1C	inconclusive: 20 µM [inhibitor, partial curve]	–
O=C1c2ccccc2NC(c2ccc(-c3cccc([N+](=O)[O-])c3)o2)N1O (stereo not drawn)	inconclusive: 11.2 µM [inhibitor, partial curve, poor fit]	–
O=C(CCCOc1ccc(Cl)cc1Cl)N/N=C/c1ccccc1O	active: 2.51 µM	–
OC(c1cc(F)cc(Cl)c1)c1ncc(-c2cccc(C(F)(F)F)c2)[nH]1 (stereo not drawn)	inconclusive: 3.55 µM [inhibitor, single point]	–
NC(Cc1ccc(Cl)cc1)c1csc(Nc2nccc(C(F)(F)F)n2)n1 (stereo not drawn)	inactive	–
